The record followed here is paper PMC11172389.

By UniProt entry, the sequences of proteins in these tests, tags left out.
UniProt Q9Z0V1: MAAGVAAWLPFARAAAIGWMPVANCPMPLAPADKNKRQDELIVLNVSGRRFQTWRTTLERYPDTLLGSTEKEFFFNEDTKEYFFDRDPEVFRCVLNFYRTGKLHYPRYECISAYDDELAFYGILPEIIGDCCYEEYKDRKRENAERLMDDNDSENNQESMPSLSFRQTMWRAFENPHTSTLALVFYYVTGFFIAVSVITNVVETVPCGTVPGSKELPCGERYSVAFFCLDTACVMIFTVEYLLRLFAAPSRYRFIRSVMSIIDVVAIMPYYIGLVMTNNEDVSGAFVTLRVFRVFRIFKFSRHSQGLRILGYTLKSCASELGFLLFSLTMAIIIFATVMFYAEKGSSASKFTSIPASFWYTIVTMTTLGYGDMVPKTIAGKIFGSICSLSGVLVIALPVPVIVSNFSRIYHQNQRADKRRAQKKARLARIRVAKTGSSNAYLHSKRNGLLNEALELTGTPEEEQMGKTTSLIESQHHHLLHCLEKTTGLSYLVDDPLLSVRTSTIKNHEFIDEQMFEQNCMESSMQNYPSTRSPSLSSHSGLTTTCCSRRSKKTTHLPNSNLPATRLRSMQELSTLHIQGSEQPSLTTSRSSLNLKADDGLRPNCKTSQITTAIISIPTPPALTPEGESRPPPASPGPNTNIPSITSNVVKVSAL
UniProt Q99246: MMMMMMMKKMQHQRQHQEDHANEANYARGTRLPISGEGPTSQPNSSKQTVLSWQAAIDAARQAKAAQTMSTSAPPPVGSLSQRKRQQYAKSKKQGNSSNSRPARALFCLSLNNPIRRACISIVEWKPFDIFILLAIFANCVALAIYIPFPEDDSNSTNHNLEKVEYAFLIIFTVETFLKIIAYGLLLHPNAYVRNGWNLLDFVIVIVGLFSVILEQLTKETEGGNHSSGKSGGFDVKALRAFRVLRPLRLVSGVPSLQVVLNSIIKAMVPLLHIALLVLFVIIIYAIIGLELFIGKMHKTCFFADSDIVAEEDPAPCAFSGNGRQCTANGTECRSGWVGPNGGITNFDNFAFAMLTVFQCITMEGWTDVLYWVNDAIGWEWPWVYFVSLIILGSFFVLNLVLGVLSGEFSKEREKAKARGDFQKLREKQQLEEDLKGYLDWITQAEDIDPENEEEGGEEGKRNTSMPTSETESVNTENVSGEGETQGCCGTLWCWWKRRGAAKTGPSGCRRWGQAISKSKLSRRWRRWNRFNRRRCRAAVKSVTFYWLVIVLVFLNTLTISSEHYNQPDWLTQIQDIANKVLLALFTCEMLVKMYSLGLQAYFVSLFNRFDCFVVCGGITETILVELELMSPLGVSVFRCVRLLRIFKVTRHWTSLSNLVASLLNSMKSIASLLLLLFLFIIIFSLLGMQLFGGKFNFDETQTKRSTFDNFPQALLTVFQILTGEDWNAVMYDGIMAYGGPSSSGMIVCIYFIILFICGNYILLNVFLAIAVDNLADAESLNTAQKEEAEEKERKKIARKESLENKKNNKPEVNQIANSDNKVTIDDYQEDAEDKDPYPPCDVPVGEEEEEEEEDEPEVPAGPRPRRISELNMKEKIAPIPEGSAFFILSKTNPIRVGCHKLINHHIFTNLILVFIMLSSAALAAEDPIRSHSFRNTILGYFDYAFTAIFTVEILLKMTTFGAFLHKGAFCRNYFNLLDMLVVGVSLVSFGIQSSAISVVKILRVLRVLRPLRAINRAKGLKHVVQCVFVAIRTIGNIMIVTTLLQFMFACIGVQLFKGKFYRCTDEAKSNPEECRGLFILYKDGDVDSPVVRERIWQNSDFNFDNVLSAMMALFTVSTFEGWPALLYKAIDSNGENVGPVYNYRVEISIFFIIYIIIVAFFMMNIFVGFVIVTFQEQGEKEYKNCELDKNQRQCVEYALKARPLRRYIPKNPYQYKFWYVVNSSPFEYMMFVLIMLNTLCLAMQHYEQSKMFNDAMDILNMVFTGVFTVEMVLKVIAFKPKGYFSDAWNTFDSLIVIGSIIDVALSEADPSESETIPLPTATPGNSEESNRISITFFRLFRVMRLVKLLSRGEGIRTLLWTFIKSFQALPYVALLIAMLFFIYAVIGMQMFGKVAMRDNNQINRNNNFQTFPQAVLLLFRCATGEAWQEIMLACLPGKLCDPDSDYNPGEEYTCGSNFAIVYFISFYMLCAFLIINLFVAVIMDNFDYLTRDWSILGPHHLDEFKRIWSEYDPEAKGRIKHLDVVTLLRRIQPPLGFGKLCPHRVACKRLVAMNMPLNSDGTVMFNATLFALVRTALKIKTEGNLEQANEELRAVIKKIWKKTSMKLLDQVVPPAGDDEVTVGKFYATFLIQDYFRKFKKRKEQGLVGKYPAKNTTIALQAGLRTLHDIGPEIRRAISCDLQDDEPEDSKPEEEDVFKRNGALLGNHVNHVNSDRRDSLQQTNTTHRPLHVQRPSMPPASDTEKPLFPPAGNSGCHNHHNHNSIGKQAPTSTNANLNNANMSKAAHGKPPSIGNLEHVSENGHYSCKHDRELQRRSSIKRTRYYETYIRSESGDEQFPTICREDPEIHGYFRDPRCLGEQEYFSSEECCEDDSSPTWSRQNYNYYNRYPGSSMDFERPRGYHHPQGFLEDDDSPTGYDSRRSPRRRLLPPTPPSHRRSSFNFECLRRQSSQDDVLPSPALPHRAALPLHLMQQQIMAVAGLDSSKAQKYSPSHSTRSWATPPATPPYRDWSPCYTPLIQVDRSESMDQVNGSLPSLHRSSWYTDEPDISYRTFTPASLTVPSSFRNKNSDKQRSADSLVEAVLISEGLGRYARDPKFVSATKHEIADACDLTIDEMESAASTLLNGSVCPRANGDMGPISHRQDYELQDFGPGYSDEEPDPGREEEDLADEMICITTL
UniProt P58391: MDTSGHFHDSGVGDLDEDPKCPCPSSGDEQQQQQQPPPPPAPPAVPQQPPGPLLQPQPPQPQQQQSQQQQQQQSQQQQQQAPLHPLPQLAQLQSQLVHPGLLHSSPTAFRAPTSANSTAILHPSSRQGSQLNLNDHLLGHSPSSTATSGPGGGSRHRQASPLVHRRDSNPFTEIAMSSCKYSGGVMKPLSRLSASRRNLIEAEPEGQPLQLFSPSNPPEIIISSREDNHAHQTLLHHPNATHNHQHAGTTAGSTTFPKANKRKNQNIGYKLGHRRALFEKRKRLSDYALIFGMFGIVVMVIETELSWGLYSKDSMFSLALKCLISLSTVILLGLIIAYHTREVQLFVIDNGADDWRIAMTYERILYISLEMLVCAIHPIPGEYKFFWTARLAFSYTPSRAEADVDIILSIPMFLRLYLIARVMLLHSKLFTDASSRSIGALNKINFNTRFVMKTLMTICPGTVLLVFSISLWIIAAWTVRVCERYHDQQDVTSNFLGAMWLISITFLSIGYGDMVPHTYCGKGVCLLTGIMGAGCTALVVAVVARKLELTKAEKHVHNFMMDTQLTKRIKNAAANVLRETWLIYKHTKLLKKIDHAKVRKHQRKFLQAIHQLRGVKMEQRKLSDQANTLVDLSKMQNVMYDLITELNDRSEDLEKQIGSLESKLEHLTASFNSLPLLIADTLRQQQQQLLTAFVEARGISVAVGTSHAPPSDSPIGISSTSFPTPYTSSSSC

In assay [1] the target is Kv4.3 A-type potassium channel (mouse (endogenous in midbrain)) (UniProt Q9Z0V1). Description: proximity ligation; in situ Duolink PLA with two primary antibodies on fixed 40 µm mouse midbrain slices; puncta counted on tyrosine-hydroxylase-labelled SNc DA neurons; controls: KO mice or an antibody to another protein.
The target in assay [2] is Cav1.3 L-type voltage-dependent Ca2+ channel α1-subunit (mouse (endogenous in midbrain)) (UniProt Q99246). Described as above.
Assay [3] deals with SK3 calcium-activated small-conductance potassium channel (mouse (endogenous in midbrain)) (UniProt P58391). The assay is described as above.
Assay [4] concerns the target Kv4.3 A-type potassium channel (mouse (endogenous in midbrain)) (UniProt Q9Z0V1). As to the kind of experiment: co-IP; mouse midbrain plasma-membrane-enriched fraction solubilised in ComplexioLyte CL47a (IP1) or CL48 (IP2), also in the other ComplexioLyte buffers of varying stringencies; antibody overnight at 4 °C, captured on protein A-Sepharose or protein A/G; immunoblot.

These are yes or no findings as the source states them, for the method shown. Binding seen in cells or lysates may run through a third protein. Some entries that bind do so weakly or less than the wild type.

B1: hyperpolarization-activated cyclic nucleotide-gated channel HCN2 (protein, UniProt O88703 1-863)
chain: MDARGGGGRPGDSPGTTPAPGPPPPPPPPAPPQPQPPPAPPPNPTTPSHPESADEPGPRARLCSRDSACTPGAAKGGANGECGRGEPQCSPEGPARGPKVSFSCRGAASGPSAAEEAGSEEAGPAGEPRGSQASFLQRQFGALLQPGVNKFSLRMFGSQKAVEREQERVKSAGAWIIHPYSDFRFYWDFTMLLFMVGNLIIIPVGITFFKDETTAPWIVFNVVSDTFFLMDLVLNFRTGIVIEDNTEIILDPEKIKKKYLRTWFVVDFVSSIPVDYIFLIVEKGIDSEVYKTARALRIVRFTKILSLLRLLRLSRLIRYIHQWEEIFHMTYDLASAVMRICNLISMMLLLCHWDGCLQFLVPMLQDFPSDCWVSINNMVNHSWSELYSFALFKAMSHMLCIGYGRQAPESMTDIWLTMLSMIVGATCYAMFIGHATALIQSLDSSRRQYQEKYKQVEQYMSFHKLPADFRQKIHDYYEHRYQGKMFDEDSILGELNGPLREEIVNFNCRKLVASMPLFANADPNFVTAMLTKLKFEVFQPGDYIIREGTIGKKMYFIQHGVVSVLTKGNKEMKLSDGSYFGEICLLTRGRRTASVRADTYCRLYSLSVDNFNEVLEEYPMMRRAFETVAIDRLDRIGKKNSILLHKVQHDLSSGVFNNQENAIIQEIVKYDREMVQQAELGQRVGLFPPPPPPQVTSAIATLQQAVAMSFCPQVARPLVGPLALGSPRLVRRAPPGPLPPAASPGPPAASPPAAPSSPRAPRTSPYGVPGSPATRVGPALPARRLSRASRPLSASQPSLPHGVPAPSPAASARPASSSTPRLGPAPTARTAAPSPDRRDSASPGAASGLDPLDSARSRLSSNL
As for B1, the binding entry in assay [1] was “no binding”; in assay [2], “binds”; in assay [3] it was “binds”; in assay [4], “no binding”.
